According to ChEMBL document CHEMBL1201862, “PubChem BioAssay data set” (2004):
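Results reflect a 48-hour exposure of cells in 96-well plates to compound at five concentrations. GI50 marks 50% less growth.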 Active and inactive are the calls of the source. Cut-off read from the data, not from the text of the source: active = GI50 up to about 1.1 µM and inactive = higher.

These compounds were tested on NCI-H322M (assay: growth of human tumour cells (NCI), 48 h).

Compound	GI50
Cc1c(O)c(OC2OC(CO)C(O)C(O)C2O)cc2c1CC[C@@H]1C2(C)C(=O)C[C@]2(C)[C@@H]([C@@](C)(O)C(=O)CCC(C)(C)O)[C@H](O)C[C@@]12C (some centres undefined)	inactive: > 100 µM
O=S(=O)(c1ccccc1)n1c2cc3cccnc3nc2c2cccnc21	inactive: > 100 µM
Cc1ccc(-c2cn3c(nc4ccccc43)c(C)n2)cc1	inactive: > 62.5 µM
Cc1cn(C2CC(O)C(COC(N)=O)O2)c(=O)[nH]c1=O (centres undefined)	inactive: > 100 µM
O=C(Cc1ccccc1)NN1C(=O)C(Cl)C1c1ccccc1Cl (centres undefined)	inactive: > 100 µM
COC(=O)CC1CCN(C#N)CC1CC[N+](=O)[O-] (centres undefined)	inactive: > 100 µM
CC(=O)NNc1nc(C)c(C(/C=C/c2ccc([N+](=O)[O-])cc2)=N/NC(N)=S)s1	inactive: > 100 µM
CC1=C2[C@H](c3ccccc3)C3C=CC2(c2ccccc23)N(C(=O)C(c2ccccc2)c2ccccc2)C1=O (some centres undefined)	inactive: > 100 µM
O=[N+]([O-])c1ccc2nc(/C(=N/Nc3ccccc3)C(O)c3ccc(Cl)cc3Cl)c(O)nc2c1 (centres undefined)	inactive: > 100 µM
CC(C)CNC1=NCC(C)S1 (centres undefined)	inactive: > 100 µM
Cc1cc(N(CCC#N)CCC#N)ccc1/C=C(\NC(=O)/C=C/c1ccccc1)C(=O)N=[N+]=[N-]	inactive: > 100 µM
CCCCCCCCCC[C@@H](O)[C@H]1CC[C@@H]([C@H]2CC[C@H]([C@H](O)CCCCCCCCCC[C@@H]3CC(CC(C)=O)C(=O)O3)O2)O1 (some centres undefined)	inactive: 23 µM
COC(=O)C1=C(C(=O)OC)SC(=C2SC3=C(SC(=C4SCCS4)S3)S2)S1	inactive: > 100 µM
COCc1cc2c(cc1/C(=C/[N+](=O)[O-])CS(=O)(=O)c1ccccc1)OCO2	inactive: > 100 µM
O=C(O)c1ccccc1C(=O)c1ccco1	inactive: > 100 µM
C1=CC(=P(c2ccccc2)(c2ccccc2)c2ccccc2)C=C1	inactive: 12.1 µM
CC(=O)O[C@H]1C(=O)[C@@]2(C)[C@H]([C@H](OC(=O)c3ccco3)[C@]3(O)C[C@H](OC(=O)[C@H](O)[C@@H](NC(=O)c4ccccc4)c4ccccc4)C(C)=C1C3(C)C)[C@]1(OC(C)=O)CO[C@@H]1C[C@@H]2O	active: 0.541 µM
O=c1[nH]cnc2c1sc1nc3ccccc3n12	inactive: > 100 µM
N#Cc1c(N)nc2c(/N=N\c3ccccc3)c(N)nn2c1Nc1ccccc1	inactive: 8.15 µM
C/C=C\C(CC(=O)OC)CC(=O)N(CCC1CN(S(=O)(=O)C(F)(F)F)c2ccccc21)Cc1ccc(OC)cc1OC (centres undefined)	inactive: > 100 µM
CCCCC[C@@H]1CCCC2NC(CCCCCO[Si](c3ccccc3)(c3ccccc3)C(C)(C)C)CCC21 (some centres undefined)	inactive: 15.3 µM

Compound	GI50
CC(=O)OC(Cc1c(O)c2c(C)cccc2oc1=O)C(C)(C)O (centres undefined)	inactive: > 100 µM
COc1cc(/C=C/C(=O)c2sc(NNC(C)=O)nc2C)ccc1O	inactive: > 100 µM
CC(=O)n1[nH]c(=O)n(-c2ccc(Cl)cc2)c1=O	inactive: > 100 µM
Cn1/c(=N\S(=O)(=O)c2ccccc2)[nH]c2ccccc21	inactive: > 100 µM
c1ccc(CNCCCNCCCCNCCCNCc2ccccc2)cc1	inactive: 14.9 µM
CC1=CSC(O)(c2ccc(Cl)cc2)c2noc(=O)n21 (centres undefined)	inactive: > 100 µM
Brc1ccc2c3c1[C@@H]1O[C@@H]1c1cccc(c1-3)[C@@H]1O[C@H]21	inactive: 27.3 µM
CC(C)CC(C#CCCOC(=O)c1ccccc1)OC(=O)c1ccccc1 (centres undefined)	inactive: > 10 µM
COc1cc(C2S/C(=C/c3ccccc3)C(=O)N2c2cc(Cl)c(Cl)cc2Cl)cc(OC)c1OC (centres undefined)	inactive: 35.3 µM
CCOC(=O)C1(C(=O)OCC)[C@H](c2ccccc2)C2=NO[C@@H]3CCC[C@H]1[C@H]23	inactive: > 100 µM
O=C[C@]12CC=C3OC4OC5(CCCCC5)OC4[C@H]3[C@H]1C(=O)C=CC2=O (some centres undefined)	inactive: 54.8 µM
CCOC(=O)Nc1cc2c(c(N)n1)N=C(c1ccc3ccccc3c1)CN2	active: 0.668 µM
N#C/C(=C\c1cn(Cc2ccccc2)c2ccccc12)c1nn(-c2ccccc2)c(N)c1C#N	inactive: 15.1 µM
CCCCCc1cc2cc3c(c(O)c2c(=O)[nH]1)C1(CCC3)C(=O)c2c(O)ccc(O)c2C1=O	inactive: > 100 µM
Cc1c(N2C(=O)C(Cl)C2/C=C/c2ccccc2)c(=O)n(-c2ccccc2)n1C (centres undefined)	inactive: 14.9 µM
[O-]c1c2cc(-[n+]3c(-c4ccccc4)cc(-c4ccccc4)cc3-c3ccccc3)cc1CO[C@@H](c1ccccc1)[C@H](c1ccccc1)OCc1cccc(n1)CO[C@@H](c1ccccc1)[C@H](c1ccccc1)OC2	active: 0.352 µM
O=c1oc2c(O)c(O)cc3c(=O)oc4c(O)c(O)cc1c4c23 [ELLAGIC ACID]	inactive: 49.1 µM
NC(=S)NNC(=O)/C(=C/c1ccc(/C=C(\NC(=O)c2ccccc2)C(=O)NNC(N)=S)cc1)NC(=O)c1ccccc1	inactive: > 100 µM
O=C1OC(c2ccccc2)=N/C1=C\c1ccc(Br)cc1	inactive: > 100 µM
N#CN1CC[C@@H]2CC3(CCC2C1)OCCO3 (some centres undefined)	inactive: > 100 µM
C#CCCOC(=O)CC1=C(C)/C(=C/c2ccc([S+](C)[O-])cc2)c2ccc(F)cc21 (centres undefined)	inactive: 19.1 µM

Compound	GI50
O=C1/C(=C\c2ccco2)Oc2ccccc21	inactive: > 100 µM
CCn1c(SCC(=O)NNC(=S)NC)nc2ccccc2c1=O	inactive: > 100 µM
CC12CC3CC(C1)CC(N=[N+]=[N-])(C3)C2	inactive: > 100 µM
COC1[C@@H](OC(C)=O)[C@@H](NC(=O)C(Cl)(Cl)Cl)C(I)[C@@H](N2C(=O)c3ccccc3C2=O)[C@H]1OC (some centres undefined)	inactive: > 100 µM
O=C1/C(=C/c2ccccc2Cl)COc2ccccc21	inactive: 18.9 µM
Nc1n[nH]c(Nc2ccc(Cl)cc2)c1P(=O)(c1ccccc1)c1ccccc1	inactive: 27.6 µM
CCCCCCCCCCCCCCCCCCNC(=S)NC=C1C(=O)c2ccccc2C1=O	inactive: 9.57 µM
O=C(O)CNc1c2ccccc2nc2ccccc12	inactive: > 100 µM
Cc1ccc([N+](=O)[O-])cc1NC(=O)C(=O)Cc1nc2ccc(C(=O)c3ccccc3)cc2nc1O	inactive: > 100 µM
CC(=O)NC1CONC1=O (centres undefined)	inactive: > 100 µM
COC(=O)c1c(O)c(C#N)c2[nH]c3ccccc3n2c1=O	inactive: > 100 µM
Nc1nc(O)c2ncn(C3C=CC(CO)O3)c2n1 (centres undefined)	inactive: > 100 µM
COC1/C=C\C=C(/C)C(=O)NC2=CC(=O)C(NCCCl)=C(CC(C)CC(OC)C(O)C(C)/C=C(/C)C1OC(N)=O)C2=O (centres undefined)	inactive: 1.54 µM
CN(C)CCCNC(=O)c1cc(NC(=O)c2cc(NC(=O)c3cc(NC(=O)CCCn4ccc(CO)c4CO)cn3C)cn2C)cn1C	inactive: 30.4 µM
CC1=NN(C(=O)CC(=O)Nc2cccc(C)c2)C(=O)C1/N=N/c1ccc(S(=O)(=O)CCOS(=O)(=O)O)cc1 (centres undefined)	inactive: 11.9 µM
S=C(Nc1ccc2c(c1)oc1ccccc12)c1cccnc1	inactive: > 100 µM
Cc1ccc2c(c1)C/C(=C\c1ccccc1C(=O)O)C2=O	inactive: > 100 µM
COC(=O)C1=COc2c(n(C)c3ccccc23)-c2ccccc21	inactive: > 100 µM
COc1cc(Cn2c3ccccc3c3cc(C)c4c(c32)C=CC(C)(CCC=C(C)C)O4)cc2c1[nH]c1ccccc12 (centres undefined) [CHRESTFOLINE C]	inactive: > 100 µM
COc1ccc(NC(=O)C(=O)Cc2ccc([N+](=O)[O-])c([N+](=O)[O-])c2CC(=O)C(=O)Nc2ccc(OC)cc2OC)c(OC)c1	inactive: > 100 µM
C=C1CC2C(=O)N(c3ccccc3)C(=O)C2CC1n1[nH]c(=O)n(Cc2ccccc2)c1=O (centres undefined)	inactive: > 100 µM

Compound	GI50
O=C(CC(C(=O)c1ccsc1)c1cccs1)c1cccs1 (centres undefined)	inactive: 94.6 µM
CCOC(=O)N/N=C(/N)c1cccc([N+](=O)[O-])c1	inactive: > 100 µM
COc1cc(C2c3cc4c(cc3OC(N3CCOCC3)C2C)OCO4)cc(OC)c1OC(C)=O (centres undefined)	inactive: 39.7 µM
Cc1ccc2c(c1)C(=O)N(N(C)C)CC(=O)N2	inactive: > 100 µM
O=c1cc(-c2ccccc2)oc2c(-c3cc(Cl)cc4c(=O)cc(-c5ccccc5)oc34)cc(Cl)cc12	inactive: 20.8 µM
COC(=O)/C1=C/c2c([nH]c3ccccc23)/C(C(=O)OC)=C\c2c1[nH]c1ccccc21 [CAULERPIN]	inactive: 26.2 µM
CC1C[C@H](C)CC(C(O)CC2CC(=O)N(Cc3ccccc3)C(=O)C2)C1O (some centres undefined)	inactive: > 100 µM
O=CN1CCN(c2ccc3ccc(O)nc3n2)CC1	inactive: > 100 µM
CC(=O)NCCc1c(-c2[nH]c3ccccc3c2CCNC(C)=O)[nH]c2ccccc12	inactive: > 100 µM
O=C(COc1ccc(Cl)c(Cl)c1)N(Cc1ccccc1)Cc1ccc[n+](Cc2ccc(Cl)cc2S(=O)(=O)F)c1	inactive: 84.7 µM
NC1=NS(=O)(=O)Nc2nc(-c3ccc(Cl)cc3)c(-c3ccc(Cl)cc3)nc21	inactive: > 100 µM
CC(C)c1cccc(C(C)C)c1NC(=O)C(=O)C(C(=O)c1ccccc1-c1ccccc1)C1OC(=O)c2ccccc21 (centres undefined)	inactive: 14 µM
c1cncc(CSc2nc3ccccc3nc2-c2cccs2)c1	inactive: > 100 µM
CC(C)c1cccc(C(C)C)c1NC(=O)/C(CC(=O)CC(c1ccccc1)c1c(O)c2ccccc2oc1=O)=N/O (centres undefined)	inactive: > 100 µM
CNC(=O)N(CCCCC(NC(C)=O)C(=O)NCc1ccccc1)Cc1ccccc1 (centres undefined)	inactive: > 100 µM
O=C(CSc1nnc(Cc2ccccc2)o1)Nc1cccc([N+](=O)[O-])c1	inactive: > 100 µM
O=C1C/C(Br)=C\c2ccccc2-c2ccccc21	inactive: 4.09 µM
O=C(SC1=NCCN1)c1cccc2ccccc12	inactive: > 100 µM
COc1c(OC2OC(CO)C(O)C(O)C2O)cc2c(c1OC)-c1ccc(OC)c(=O)cc1C(NC(C)=O)CC2 (centres undefined)	inactive: > 99.8 µM
C=C(C)[C@@H]1CC[C@]2(C(=O)O)CC[C@]3(C)[C@H](CCC4[C@@]5(C)CC[C@H](C(=O)/C=C/c6ccc(O)c(O)c6)C(C)(C)[C@@H]5CC[C@]43C)[C@@H]12 (some centres undefined)	inactive: 10.7 µM
CC1(CO)OC(n2cnc3cncnc32)CC1O (centres undefined)	inactive: > 100 µM
